Biological target: dually phosphorylated ERK2 on Tyr185 and Thr183 (ERK2-pTpY), purified (rat, UniProt P63086, phosphothreonine 183, phosphotyrosine 185)
Experiment: cell-based or functional assay

- ERK2-pTpY activity towards MBP, real-time fluorescence-based in vitro kinase assay; fold enhancement of the initial rate over no βarr control: ~5 fold over control
B1: β-arrestin 2 (purified, free basal state) (natural protein)
chain: not shown

Source: publication PMC10614829 (Proceedings of the National Academy of Sciences of the …, 2023)
